Laboratory results: PubChem BioAssay AID652025 (National Center for Advancing Translational Sciences (NCATS), 2013)
Hit rate of the full screen: of about 360,000 compounds, about 240 (0.067%) were called active. Inconclusive results, whose numbers are uncertain, are shown with a selection of clear calls. No stated cut-off is given here; in the data, active means activation above about 50%; inconclusive means mostly about 30% to 49%; inactive means weaker than that.

assay: qHTS of IL-2 Activators; conditions: IL-2 activation reporter assay, cell-based qHTS; stronger effect = higher value; in transgenic mouse T cells; stimulated with anti-CD3/CD4/CD28 beads; further: 0% is about no effect
Excerpt: The adaptive immune response against any infectious agent begins with the activation of an antigen specific T cell. This relatively rare and inert ("naive") T cell undergoes a massive proliferative expansion and differentiation process to generate sufficient number of potent pathogen-specific effector T cells. The effector T cells fight the infection by making cytokines and helping other cells to become fully armed as well. If any naive T cell has antigen receptors (TCRs) that can be activated by self peptides, then a variety of regulatory mechanisms kick in to prevent this cell from performing to its full potential. These processes collectively constitute the phenomenon of immunological tolerance and their failure leads to autoimmunity. One arm of tolerance involves generation of biochemical negative feedback downstream of the TCR (tuning). This is especially relevant to self antigens present in the body over long periods of time (chronic), which form the bulk of our proteome. The negative feedback serves to tune the TCR signaling, such that the ambient antigenic stimulation is nullified intracellularly. Unfortunately, this critical machinery serves as a target for chronic viral, bacterial and parasitic infections (as well as tumors), which can evade a robust immune response, simply by allowing T cells to tune down their signaling to pathogen or malignancy derived antigens. As such, disrupting the tuning in such cases would allow the tolerant T cell to function again and deliver a robust effector response.
If a therapeutic can restore responsiveness to the tuned down T cell, even for a short time, they could combat the pathogen without any additional immunization. To that end, we have developed a sensitive HTS T cell based assay based on IL-2. This assay will be screened against the Molecular Libraries Small Molecule Repository (MLSMR) to find small molecules that could elicit this response.
NIH Chemical Genomics Center [NCGC]
NIH Molecular Libraries Probe Centers Network [MLPCN]
Assay Submitter (PI): Ron Schwartz, NIAID
4 microL (750 cells/well) of unstimulated transgenic mouse T cells (columns 1-3,5-48) are dispensed into Aurora LoBase, black clear-bottom 1536-well assay plates; column 4 receives an identical concentration of transgenic memory T cells as a non-tolerant control. Compounds are then transferred via Kalypsys pin tool equipped with 1536-pin array (10 nL slotted pins, V&P Scientific, San Diego, CA). Following addition of compound and a 60 minute incubation, 1 microL of bead stimulation solution ((0.04 micron Fluospheres (Life technologies, CA) coated with 10ug/ml each anti-CD3 and anti-CD4 (clones 2C11 and GK1.5, BD Biosciences, CA) and mixed with 1ug/ml anti-CD28 (clone PV-1, BD biosciences, CA)). columns 2-48) is added to stimulate the IL-2 response pathway; media is instead added to column 1 as an unstimulated control, while PMA/ionomycin (Sigma Aldrich, MO) is added to column 3 as a control for IL-2 tolerance bypass. The plates are then incubated at 37 degrees C for 18 hours. EGFP and DsRed signal are then detected using an Acumen eX3 Explorer fluorescent plate cytometer. All cells are dispensed in cell media containing EHAA (Quality Biologicals, MD), RPMI (Quality Biologicals, MD), Glutamine (Life Technologies, CA), Penicillin/Streptomycin (Quality Biologicals, MD), 2-ME (Sigma Aldrich, MO) and 10% FBS (Gemini Bioproducts, CA) .

activation, inactive:
CC(NC(=O)C1=CC=CN2CCS(=O)(=O)N=C12)c1ccc(Cl)cc1Cl (stereo not given) 0.107%
CCC(=O)N1CCN(c2nc(CC)nc3sc4c(c23)CCCC4)CC1 -0.0447%
CCN1C(=O)c2cccc3c(N)ccc(c23)C1=O 14.6%
C/C(=N\OC(=O)c1ccccc1)c1cc(-c2ccc(Cl)cc2)no1 1.08%
Cc1cccc(NS(=O)(=O)c2ccc(NC(=O)N3CCCCC3)cc2)c1 -3.4%
CC1CCc2nc(NC(=O)Cc3cccs3)sc2C1 (stereo not given) -0.137%
CS(=O)(=O)Nc1cccc2cccnc12 2.46%
Oc1ccccc1CNc1cnc2ccccc2c1 -0.819%
COC(=O)c1[nH]c2ccccc2c1NC(=O)C(C)N1CC(C)OC(C)C1 (stereo not given) -1.22%
CC(C)c1cc(C(=O)Nc2cccc(Cl)c2)no1 -1.3%
CC(=O)N1c2ccc(Cl)cc2C2C=CCC2C1c1cccc2ccccc12 (stereo not given) -2.47%
CC(C)C[C@H]1CN=C(Nc2ccccc2)N1CCc1ccc(F)cc1 -0.401%
CCOc1ccc(N/C(C)=C\C(=O)c2ccc3c(c2)OCCO3)cc1 -0.896%
c1ccc2sc(N3CCCCC3)nc2c1 -1.01%
O=C(/C=C/c1ccccc1)NC(NC(=S)Nc1cccc(O)c1)C(Cl)(Cl)Cl (stereo not given) 0.174%
CCOc1ccc2c(c1)sc1nc(C(=O)OC)cc(=O)n12 0.348%
CSCCC1C(C#N)=C(N)Oc2n[nH]c(-c3cccs3)c21 (stereo not given) -2.58%
CCCOc1ccc(Cn2c(=O)oc3ccc(C)cc32)cc1 2.03%
Cc1ccccc1OCc1nnc2c3cnn(C)c3ncn12 -1.19%
CC(=O)SC1CC(=O)N(c2ccc(C(C)(C)C)cc2)C1=O (stereo not given) -5.55%
COc1ccccc1N1CCN(C(c2ccccn2)c2nnnn2C2CCCCC2)CC1 (stereo not given) 1.72%
COc1cccc(CNC(=O)CCC2CCCN(C(=O)c3cc(C4CC4)[nH]n3)C2)c1 (stereo not given) 0.169%
CC(C)=C1C(=O)NN(c2cccc(Cl)c2)C1=O -2.53%
COC(=O)c1cccc(S(=O)(=O)N(Cc2ccco2)Cc2cc3cc(OC)c(OC)cc3[nH]c2=O)c1 3.66%

activation, inconclusive:
Cc1ccc(CNC(=O)c2cccc3c2C(=O)c2ccc(N4CCC(C)CC4)cc2S3(=O)=O)cc1 33.6%
COc1ccc(C2=NC(=O)/C(=C\c3cc(OC)c(OC)c(OC)c3)O2)cc1 37.4%
Cc1ccc(S(=O)(=O)c2cc3c(=O)n4ccccc4nc3n(CCc3ccccc3)c2=N)cc1 48.6%
O=c1oc(/C=C/c2ccco2)nc2sc3c(c12)CCC3 44.1%
COc1ccc(-n2c(O)c(/C=N/NS(=O)(=O)c3cc(C)ccc3C)c3ccccc3c2=O)cc1OC 33.6%
CSC1=N/C(=C\c2ccc3c(c2)OCO3)C(=O)S1 40.8%
Cc1cccc(NC(=O)CSc2cc(C)c(C#N)c3nc4ccccc4n23)c1 35.6%
O=C(N/N=C/c1ccc(-c2ccc([N+](=O)[O-])cc2)o1)[C@H]1C[C@@H]1c1ccccc1 41.5%
CCN(CC)c1ccc2cc(-c3nc(-c4cc5ccccc5oc4=O)cs3)c(=O)oc2c1 41.9%
Cc1ccccc1C(=O)Nc1ccccc1C(=O)N1CCC(C)CC1 45.7%
Oc1[nH]c2ccccc2c1N=Nc1ccccc1Cl 40.8%
CN1C(=O)/C(=C\c2ccc(N(C)C)cc2)OC1=S 30.3%
Cc1ccc(S(=O)(=O)NCC(C)n2nc(C)cc2C)cc1 (stereo not given) 45%
COC(=O)c1sc2nc(CSc3nc4ccc(C)cc4[nH]3)[nH]c(=O)c2c1C 32.5%
COc1ccc(/C=c2\sc3nc(-c4ccccc4)c(-c4ccccc4)n3c2=O)cc1OC 48%
O=C(NCc1ccc(F)cc1)c1cccc2c1C(=O)c1ccc(N3CCC(Cc4ccccc4)CC3)cc1S2(=O)=O 42.4%
CC[n+]1cc(C)ccc1/C=C/c1ccc(N(C)C)cc1 32.2%
Cn1ccnc1SCC(=O)Nc1cccc(O)c1 37.8%
CCOC(=O)/C(C#N)=N\Nc1cc(Cl)ccc1OC 42.6%
Cc1cc(Oc2ccc(Cl)cc2)nc(SCC(=O)c2ccccc2)n1 45.7%
COc1ccc(/C=C2\SC(=S)N(CCC(=O)NC3=NCCS3)C2=O)cc1OC 44.8%
CCCN1C(=O)/C(=C/c2c(N3CCNC(=O)C3CC(=O)OCC)nc3c(C)cccn3c2=O)SC1=S (stereo not given) 34.3%
COCCCn1c(=O)/c(=C\c2ccccc2OC(F)F)s/c1=C(/C#N)C(=O)NCCOC 40.4%
COc1ccc(NC(=O)Nc2ccc(N(C)C)cc2)cc1 32.5%
Cc1ccc(/C=C/c2ccc(N(C)C)cc2)[n+](C)c1 33.2%
COC(=O)c1ccc(NC(=O)CN2C(=O)C3C4C=CC(C4)C3C2=O)cc1 (stereo not given) 35.9%
N#CC(C(=O)NC1CCCCC1)c1nc2ccccc2nc1N1CCN(c2ccccc2F)CC1 (stereo not given) 38.4%
CCCCN(CC)Cc1ccc(CNC(=S)Nc2cccc(F)c2)o1 31.6%
Cc1ccc(-c2ccc(CCC(=O)O)n2CC(=O)O)cc1 30.9%
Cc1n[nH]c(C)c1N1C(=O)c2cccc3c(N4CCCCCC4)ccc(c23)C1=O 45.5%
NC(=O)CC(NC(=O)Cc1ccc(Br)cc1)c1ccc(NC2CCCCCCC2)c([N+](=O)[O-])c1 (stereo not given) 35.4%
O=C(Nc1nc2ccc(Cl)cc2s1)c1ccc(Br)o1 34.6%
O=c1[nH]c(-c2ccc3c(c2)OCO3)nc2c1sc(=S)n2-c1ccccc1 35.2%
CCOC(=O)c1c(S(=O)(=O)NCCc2ccco2)c(C)n(C)c1C 39.6%
O=C(NC1CC1)C1CCN(C2CCN(Cc3ccccc3C(F)(F)F)CC2)CC1 30.2%
COc1ccc(/C=C2\N=C(C)N(c3ccc4ccccc4c3)C2=O)cc1OC 37.7%
CCOC(=O)c1c(NC(=O)CC2Nc3cc(C)c(C)cc3NC2=O)sc(C)c1C (stereo not given) 40.3%
COc1ccc(NC(=O)c2sc3nc(-c4cccnc4)ccc3c2N)cc1 38.4%
CCOC(=O)CC(=O)CSc1nc(-c2ccc3c(c2)OCO3)cc(C(F)(F)F)c1C#N 37.1%
Cc1ccc2nc(/C(C#N)=C\c3ccc(N4CCOCC4)o3)[nH]c2c1 31.7%
O=C(Cc1nc2ccccc2[nH]c1=O)c1ccccc1 41.1%
O=C(O)CSCC(=O)Nc1ccccc1 35.4%
CCOC(=O)c1nn(-c2ccc(Cl)cc2)c2nc(CC)c(C#N)c(=O)n12 42.6%
CC1=CC(=C(C#N)c2nc3ccccc3s2)C=C(C)N1c1ccc(F)cc1F 38.2%
Cc1cccc(N2C(=O)c3cccc4c(N)ccc(c34)C2=O)c1 37.2%
COC(=O)CSc1nc2cc3c(cc2cc1C#N)OCO3 35.4%
CCOC(=O)c1c(/N=C/N(C)C)sc(/C=N/Nc2ccccc2)c1-c1ccccc1 41.7%
COCCn1c(C)cc(C(=O)COc2nc3ccccc3nc2C)c1C 34.5%
C=CCn1nc(-c2ccccc2)c2c(C)onc2c1=O 48.6%
CCCCCCN1C=CC(=C2C(=O)c3ccccc3C2=O)C=C1 30.7%

activation, active:
COc1cc2c3nnc(-c4ccc(F)cc4)c-3cn(Cc3cccc(F)c3)c2cc1OC 76.4%
Nc1c(C(=O)Nc2nccs2)sc2nc(-c3cccs3)cc(C(F)(F)F)c12 104%
Cc1ccc(N=Nc2c(O)[nH]c3ccc(F)cc23)cc1 269%
COc1ccc2c(n1)Sc1nc3ccccc3nc1N2 260%
O=C(CCN1C(=O)/C(=C/c2cccs2)SC1=S)NNC(=O)c1cccc(O)c1 133%
COc1ccc(-n2c(=O)/c(=C\c3cccs3)s/c2=C(/C#N)C(=O)NCCN2CCOCC2)cc1 137%
COc1cc2c3nnc(-c4ccc(F)cc4)c-3cn(Cc3ccc(C)cc3)c2cc1OC 349%
CCOC(=O)Cn1c(=O)c(-c2cc(Br)ccc2N)nc2ccccc21 152%
CCOC(=O)c1c(NC(=O)CC2Nc3ccccc3NC2=O)sc(C)c1C (stereo not given) 158%
CCN1/C(=C/c2cc[n+](CCCS(=O)(=O)[O-])c3ccccc23)Sc2ccccc21 226%
COc1ccc2nc(C)cc(NCc3ccc(F)cc3)c2c1 65.3%
CCn1cc(Br)c(C(=O)NC(C)c2ccccc2)n1 (stereo not given) 71.7%
Cc1ccc(-n2c(C)cc(/C=C3\NC(=O)NC3=O)c2C)c(C)c1 67.4%
CCc1ccc(/C=C2/SC(=S)N(CCC(=O)Nc3cccnc3)C2=O)cc1 53.6%
CCOC(=O)c1ccc(-c2ccc(/C=C(\C#N)C(=O)NCc3cccs3)o2)cc1 60.9%
C=CCn1c(=O)/c(=C/c2ccsc2)s/c1=C(\C#N)C(=O)NCCN1CCOCC1 60.3%
